# Laboratory results taken from PMC4336329 (PLoS ONE, 2015).
# In all, about 310,000 compounds went through this assay and about 2,200 (0.71%) showed an effect of 50% or more. The effect is printed as a negative number. The list shows a part of the results.
# Target: human ether-à-go-go-related gene (hERG) potassium channel (human, UniProt Q12809)
# Assay: primary screen, population patch clamp on CHO cells stably expressing hERG
# human ether-à-go-go-related gene (hERG) potassium channel, sequence (Q12809 whole entry, looked up): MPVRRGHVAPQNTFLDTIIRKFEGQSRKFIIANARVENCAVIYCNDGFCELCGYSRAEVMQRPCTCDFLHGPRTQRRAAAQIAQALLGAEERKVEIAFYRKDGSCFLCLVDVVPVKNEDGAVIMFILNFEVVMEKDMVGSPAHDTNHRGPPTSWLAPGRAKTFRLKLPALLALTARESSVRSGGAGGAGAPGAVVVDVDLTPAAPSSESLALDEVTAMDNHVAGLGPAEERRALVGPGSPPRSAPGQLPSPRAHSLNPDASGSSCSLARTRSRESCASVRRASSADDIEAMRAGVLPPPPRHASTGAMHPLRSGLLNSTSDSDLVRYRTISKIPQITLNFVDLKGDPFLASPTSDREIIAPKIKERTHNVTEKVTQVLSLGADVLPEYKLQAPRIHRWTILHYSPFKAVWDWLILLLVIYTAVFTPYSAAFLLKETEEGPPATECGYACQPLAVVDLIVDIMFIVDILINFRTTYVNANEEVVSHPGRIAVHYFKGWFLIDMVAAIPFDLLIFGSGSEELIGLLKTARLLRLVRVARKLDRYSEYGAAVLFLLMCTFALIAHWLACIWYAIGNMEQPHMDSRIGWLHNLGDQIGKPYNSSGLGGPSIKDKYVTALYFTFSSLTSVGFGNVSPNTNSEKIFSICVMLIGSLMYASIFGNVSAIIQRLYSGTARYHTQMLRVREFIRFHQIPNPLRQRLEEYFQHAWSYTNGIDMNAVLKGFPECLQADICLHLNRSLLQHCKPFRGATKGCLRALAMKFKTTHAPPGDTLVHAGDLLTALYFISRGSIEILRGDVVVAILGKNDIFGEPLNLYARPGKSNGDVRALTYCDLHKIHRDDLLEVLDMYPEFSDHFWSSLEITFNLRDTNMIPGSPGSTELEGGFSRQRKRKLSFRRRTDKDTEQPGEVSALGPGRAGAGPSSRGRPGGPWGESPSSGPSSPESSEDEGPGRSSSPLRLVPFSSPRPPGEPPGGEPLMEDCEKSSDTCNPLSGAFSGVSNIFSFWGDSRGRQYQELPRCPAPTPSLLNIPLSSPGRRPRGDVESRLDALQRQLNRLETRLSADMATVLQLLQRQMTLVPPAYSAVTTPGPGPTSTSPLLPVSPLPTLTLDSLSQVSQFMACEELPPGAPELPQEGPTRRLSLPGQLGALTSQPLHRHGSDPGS
row,Structure (SMILES),"hERG current change (%, negative = inhibition) at 1uM"
1,Cc1sc2ncnc(N=Nc3c(O)[nH]c4ccccc34)c2c1C,20.7%
2,Cc1nn(C)c(Cl)c1CN1CCCC(C(=O)Nc2ccc(-c3cscn3)cc2)C1 (stereo not shown),6.3%
3,Cc1c(CCO)c(=O)[nH]n1C(=O)c1ccc(F)cc1,13.9%
4,CCC(C(=O)N1CCC2(CC1)OCCO2)c1ccccc1 (stereo not shown),3.25%
5,CCN(CC)c1nc(N)c([N+](=O)[O-])c(NCCO)n1,16.2%
6,Cc1cccc(NC(=O)CCS(=O)(=O)c2ccccc2)c1,14.4%
7,Cc1ccc(C)c(NC2=NC3(CCCCC3)N=C(N)N2)c1,12.7%
8,Cc1cc(C(C)(C)C)oc1C(=O)N(CC(=O)NC1CCCC1)c1c(C)cccc1C,6.39%
9,Cc1cnc(C(=O)Nc2ccc(OC(F)(F)F)cc2)cn1,5.57%
10,CC(C)(C)NC(=O)COC(=O)c1ccccc1OCC(=O)Nc1ccc(Br)cc1,16.1%
11,O=C(Cc1noc2ccccc12)NNC(=S)Nc1ccccc1,12.5%
12,Cc1ccc(Sc2ncccc2C(=O)NCC(c2ccc(F)cc2)N2CCOCC2)cc1C (stereo not shown),4.61%
13,O=C(c1ccco1)N1C(=O)c2cccc3c(S(=O)(=O)N4CCCC4)ccc1c23,6.3%
14,CCCN(CCC)CCCNC(=O)CC(C(=O)N1CCc2ccccc21)n1ccnc1 (stereo not shown),-0.353%
15,c1ccc(C2[C@H]3CN(Cc4cccnc4)[C@H](c4ccccc4)C34CC2(c2cccnc2)C4)cc1 (stereo partly shown),6.83%
16,CSc1ccccc1C(=O)NCCSC(C)(C)C,6.9%
17,COc1ccc(/C=C2\Oc3cc(OCC(N)=O)ccc3C2=O)cc1OC,12.5%
18,CC(=O)c1c(C)[nH]c(C(=O)N(C)CC(=O)Nc2ccc(Cl)c(C(F)(F)F)c2)c1C,10.8%
19,CCC(=O)Nc1c(S(=O)(=O)c2ccccc2)c2nc3ccccc3nc2n1Cc1ccccc1,5.26%
20,CCCN1C(=O)c2cc(C(=O)NC3CCCC3)ccc2C1O (stereo not shown),2.09%
21,Cc1c(NC(=O)c2ccccc2NC(=O)c2ccccc2)cccc1C(=O)O,14.6%
22,COc1ccc(-n2nnc3c(=O)n(CC(=O)N4CCCCC4)cnc32)cc1,11.1%
23,Cc1nc(-c2cccc(NC(=O)c3cc4cc(Br)ccc4oc3=O)c2)cs1,2.79%
24,O=C(C(c1ccccc1)c1ccccc1)N1CCN(Cc2ccncc2)CC1,-7.91%
25,CCCOn1c(OCC(C)C)nc2ccccc2c1=O,12.5%
26,CC1=Nc2ccccc2/C1=C\c1sc(Nc2ccc(C)cc2)nc1O,-2.35%
27,Cc1cccc(OCC(=O)N(C)CCc2ccccn2)c1,8.5%
28,O=C(c1cccc(S(=O)(=O)N2CCOCC2)c1)N(Cc1nnc(-c2ccccc2Cl)o1)C1CC1,9.18%

row,Structure (SMILES),"hERG current change (%, negative = inhibition) at 1uM"
1,CCOc1ccc(NS(=O)(=O)c2ccc(NC(=O)c3ccccn3)cc2)cc1,15.2%
2,NS(=O)(=O)c1ccc(CCNC(=O)CCc2nc3ccccc3s2)cc1,15.9%
3,Cc1ccc(NC(=O)C2C3CCCC2C3c2ccccc2)cc1C (stereo not shown),3.15%
4,O=C1C2C3C=CC(C3)C2C(=O)N1c1ncn[nH]1 (stereo not shown),10.6%
5,FC(F)(F)c1nc2ccccc2n2c(-c3ccc(Cl)cc3)nnc12,4.99%
6,Cc1nnc(NC(=O)CSc2ncc(-c3ccccc3)[nH]2)s1,9.66%
7,CCc1cc(C(=O)N2CCCC(CO)(Cc3ccc(F)cc3)C2)n(C)n1 (stereo not shown),5.89%
8,CC(=O)c1[nH]c(C)c(C(=O)N2CCCC(Nc3cccc(F)c3)C2)c1C (stereo not shown),18.1%
9,Cc1ccc(S(=O)(=O)N2CCN(CCNC(=O)C(=O)Nc3ccc(F)cc3)CC2)cc1,9.47%
10,O=C(CSc1n[nH]c(=O)[nH]c1=O)NC1CCCCC1,17.2%
11,CCCCn1c(N)c(N(CCOC)C(=O)c2cc(-c3ccc(F)cc3)nc3ccccc23)c(=O)[nH]c1=O,12.7%
12,CC(C)c1nc2cc(C(=O)N3CCNC(=O)C3c3cccc(F)c3)ccc2o1 (stereo not shown),18%
13,Cc1ccc(S(=O)(=O)N2CCN(C(=O)CSc3nnc(-c4ccco4)o3)CC2)cc1,13.1%
14,COc1cc(C(=O)c2ccccc2Cl)c([N+](=O)[O-])cc1OC,-2.27%
15,CC(NC(=O)CSc1nc2ccccc2c(=O)n1CCCO)c1ccccc1 (stereo not shown),-0.931%
16,CC(=O)C1=C(O)CCC1=N,2.44%
17,CCn1c(O)c(C2=c3ccccc3=NC2=O)c2cc(Br)ccc21,10.2%
18,COc1ccc(CNCCCSc2ncccn2)c(OC)c1.Cl,10.4%
19,COc1cccc(OCCn2cc(/C=N/NC(=O)c3ccncc3)c3ccccc32)c1,14.3%
20,CCOC(=O)c1cc(NC(=O)Nc2nc3ccccc3s2)c(C)nc1C,4.34%
21,CC(C)(C)OC(=O)NCc1ccc(CNC(=O)c2nc[nH]c2C(=O)N2CCN(c3ccccc3)CC2)cc1,7.53%
22,COc1ccc(C2C(C(=O)NCCCN3CCOCC3)c3ccccc3C(=O)N2c2ccc(OC)cc2)cc1 (stereo not shown),2.89%
23,Cc1cc(NC(=O)CCl)n(-c2nc3ccccc3s2)n1,11.5%
24,O=C1CN(C(=O)c2ccco2)C(c2ccccc2)c2cc(Cl)ccc2N1 (stereo not shown),1.13%
25,CCOc1ccc(-n2cnnn2)cc1S(=O)(=O)Nc1c(C)cccc1C,4.82%
26,Cc1ccc2nc(NC(=O)COC(=O)c3ccncc3)sc2c1,-2.37%
27,CC(=O)Nc1ccc(NC(=O)CC23CC4CC(CC(C4)C2)C3)cc1,20.5%
